Measured values published in PMC8144412.
No constants are given. Whether binding was seen depends on the method and setting. Binding seen in cells or lysates may run through a third protein. Some entries that bind do so weakly or less than the wild type. For part of these data: Sequences can lack the tags named with a protein. One block for each molecule: values may come before it.

Chains of the proteins cited; added tags and fusions are not shown.
UniProt Q8N122: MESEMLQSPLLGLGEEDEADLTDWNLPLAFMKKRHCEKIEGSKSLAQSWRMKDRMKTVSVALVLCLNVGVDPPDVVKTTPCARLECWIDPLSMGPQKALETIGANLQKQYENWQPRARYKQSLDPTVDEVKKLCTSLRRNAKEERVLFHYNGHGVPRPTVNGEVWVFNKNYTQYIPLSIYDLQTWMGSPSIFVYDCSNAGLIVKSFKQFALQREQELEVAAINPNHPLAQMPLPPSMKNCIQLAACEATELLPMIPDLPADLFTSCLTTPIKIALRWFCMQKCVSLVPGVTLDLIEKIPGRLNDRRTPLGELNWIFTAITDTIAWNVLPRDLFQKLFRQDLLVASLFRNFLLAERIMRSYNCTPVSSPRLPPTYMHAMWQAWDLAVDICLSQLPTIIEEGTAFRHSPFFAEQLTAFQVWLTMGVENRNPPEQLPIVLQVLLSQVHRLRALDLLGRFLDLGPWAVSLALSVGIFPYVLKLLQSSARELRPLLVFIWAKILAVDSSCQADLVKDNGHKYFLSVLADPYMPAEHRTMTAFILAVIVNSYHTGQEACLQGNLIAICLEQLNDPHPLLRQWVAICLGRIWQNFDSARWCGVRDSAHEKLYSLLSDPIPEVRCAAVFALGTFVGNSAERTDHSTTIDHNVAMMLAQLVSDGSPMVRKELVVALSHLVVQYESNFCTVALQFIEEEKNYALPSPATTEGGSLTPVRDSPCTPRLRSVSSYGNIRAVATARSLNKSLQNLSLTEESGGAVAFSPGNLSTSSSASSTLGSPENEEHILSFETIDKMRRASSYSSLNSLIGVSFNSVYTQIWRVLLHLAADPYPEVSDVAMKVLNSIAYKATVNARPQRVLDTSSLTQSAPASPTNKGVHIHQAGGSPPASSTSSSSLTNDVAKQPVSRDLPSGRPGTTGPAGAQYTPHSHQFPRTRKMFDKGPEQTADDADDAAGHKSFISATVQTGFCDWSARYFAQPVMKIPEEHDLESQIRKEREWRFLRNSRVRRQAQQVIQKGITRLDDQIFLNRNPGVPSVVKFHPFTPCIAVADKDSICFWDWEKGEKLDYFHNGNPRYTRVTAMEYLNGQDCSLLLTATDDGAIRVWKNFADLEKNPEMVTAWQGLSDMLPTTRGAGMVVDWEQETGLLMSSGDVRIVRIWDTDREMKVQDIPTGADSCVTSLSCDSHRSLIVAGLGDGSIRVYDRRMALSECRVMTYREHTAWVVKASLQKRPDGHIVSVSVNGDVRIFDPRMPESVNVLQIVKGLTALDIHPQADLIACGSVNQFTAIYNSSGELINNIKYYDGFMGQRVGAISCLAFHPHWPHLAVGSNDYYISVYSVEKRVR
UniProt Q8K4Q0: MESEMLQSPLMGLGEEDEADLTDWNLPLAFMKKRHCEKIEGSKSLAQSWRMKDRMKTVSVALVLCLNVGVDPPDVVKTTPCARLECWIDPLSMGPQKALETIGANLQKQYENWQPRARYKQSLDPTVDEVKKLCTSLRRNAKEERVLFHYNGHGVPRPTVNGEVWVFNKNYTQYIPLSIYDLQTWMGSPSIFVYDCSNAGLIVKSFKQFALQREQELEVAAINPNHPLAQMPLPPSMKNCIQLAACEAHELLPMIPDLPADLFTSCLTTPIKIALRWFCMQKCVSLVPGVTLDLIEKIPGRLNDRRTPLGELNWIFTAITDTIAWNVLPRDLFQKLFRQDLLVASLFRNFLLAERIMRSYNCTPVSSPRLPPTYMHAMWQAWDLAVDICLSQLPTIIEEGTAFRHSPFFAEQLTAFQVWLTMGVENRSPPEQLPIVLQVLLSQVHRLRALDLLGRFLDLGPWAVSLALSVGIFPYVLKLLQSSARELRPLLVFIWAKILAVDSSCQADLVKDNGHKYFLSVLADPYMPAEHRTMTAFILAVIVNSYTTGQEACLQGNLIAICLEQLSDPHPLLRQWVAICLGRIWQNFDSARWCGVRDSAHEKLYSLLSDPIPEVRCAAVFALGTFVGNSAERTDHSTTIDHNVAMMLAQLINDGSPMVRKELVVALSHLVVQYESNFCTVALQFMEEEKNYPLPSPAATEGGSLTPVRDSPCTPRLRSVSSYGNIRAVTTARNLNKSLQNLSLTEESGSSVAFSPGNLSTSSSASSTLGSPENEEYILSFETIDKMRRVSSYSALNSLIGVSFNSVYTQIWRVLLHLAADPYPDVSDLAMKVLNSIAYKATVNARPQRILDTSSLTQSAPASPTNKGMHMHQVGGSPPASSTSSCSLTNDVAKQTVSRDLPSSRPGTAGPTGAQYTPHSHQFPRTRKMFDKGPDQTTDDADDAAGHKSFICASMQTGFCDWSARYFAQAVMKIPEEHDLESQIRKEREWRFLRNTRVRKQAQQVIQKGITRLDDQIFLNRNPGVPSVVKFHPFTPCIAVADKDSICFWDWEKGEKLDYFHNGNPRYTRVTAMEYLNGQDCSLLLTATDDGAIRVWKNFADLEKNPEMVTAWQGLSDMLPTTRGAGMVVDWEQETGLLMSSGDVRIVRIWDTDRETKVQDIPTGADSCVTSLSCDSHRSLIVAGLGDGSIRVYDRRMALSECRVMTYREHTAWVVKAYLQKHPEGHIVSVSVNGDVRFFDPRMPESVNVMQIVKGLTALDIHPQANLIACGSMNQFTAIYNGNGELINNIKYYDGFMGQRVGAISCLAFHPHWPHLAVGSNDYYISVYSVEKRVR
UniProt Q16531: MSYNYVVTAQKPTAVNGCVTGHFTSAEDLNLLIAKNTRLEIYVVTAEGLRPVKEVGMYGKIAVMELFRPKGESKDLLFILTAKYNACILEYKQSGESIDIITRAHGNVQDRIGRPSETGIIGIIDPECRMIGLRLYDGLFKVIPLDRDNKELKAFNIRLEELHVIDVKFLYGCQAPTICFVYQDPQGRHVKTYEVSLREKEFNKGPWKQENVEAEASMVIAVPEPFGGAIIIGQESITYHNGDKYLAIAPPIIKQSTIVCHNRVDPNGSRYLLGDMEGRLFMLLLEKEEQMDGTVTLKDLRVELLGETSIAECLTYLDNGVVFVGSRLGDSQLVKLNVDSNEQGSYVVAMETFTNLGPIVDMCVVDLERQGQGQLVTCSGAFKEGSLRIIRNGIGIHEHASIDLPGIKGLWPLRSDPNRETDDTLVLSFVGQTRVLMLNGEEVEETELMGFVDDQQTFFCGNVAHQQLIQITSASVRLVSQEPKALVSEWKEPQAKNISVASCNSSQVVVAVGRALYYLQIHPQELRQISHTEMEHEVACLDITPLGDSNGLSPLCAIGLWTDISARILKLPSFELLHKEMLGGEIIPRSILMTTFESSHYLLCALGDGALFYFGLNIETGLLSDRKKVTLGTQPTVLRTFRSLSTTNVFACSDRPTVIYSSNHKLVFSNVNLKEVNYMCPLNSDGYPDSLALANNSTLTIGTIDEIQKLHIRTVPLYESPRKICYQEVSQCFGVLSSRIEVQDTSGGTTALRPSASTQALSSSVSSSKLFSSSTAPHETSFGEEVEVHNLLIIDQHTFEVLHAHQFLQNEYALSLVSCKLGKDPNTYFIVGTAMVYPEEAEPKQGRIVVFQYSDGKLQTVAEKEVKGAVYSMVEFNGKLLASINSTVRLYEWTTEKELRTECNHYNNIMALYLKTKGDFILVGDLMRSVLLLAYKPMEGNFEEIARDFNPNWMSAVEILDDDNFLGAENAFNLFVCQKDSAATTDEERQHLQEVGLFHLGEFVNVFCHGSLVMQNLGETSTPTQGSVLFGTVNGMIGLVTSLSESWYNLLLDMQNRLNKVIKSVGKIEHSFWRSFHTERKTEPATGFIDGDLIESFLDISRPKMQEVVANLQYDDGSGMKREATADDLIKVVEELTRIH

Columns and labels:
[1] = target: Raptor (293T and HepG2 cells, precipitated with Raptor antibody) (human (endogenous in 293T and HepG2)) (UniProt Q8N122); assay: co-IP; 293T cells with or without PPDPF overexpression; immunoprecipitation with Raptor antibody
[2] = target: Raptor (293T and HepG2 cells, precipitated with Raptor antibody) (human (endogenous in 293T and HepG2)) (UniProt Q8N122); assay: co-IP; control and PPDPF-overexpressing HepG2 cells, resting or treated with PA; immunoprecipitation with Raptor antibody
[3] = target: T1, GST-PPDPF (human) (UniProt Q9H3Y8); assay: pull-down; purified GST fusion protein incubated with lysate of cultured cells overnight at 4 °C, then GST beads 1 h at 4 °C, western blotting; only the target purified
T1 sequence: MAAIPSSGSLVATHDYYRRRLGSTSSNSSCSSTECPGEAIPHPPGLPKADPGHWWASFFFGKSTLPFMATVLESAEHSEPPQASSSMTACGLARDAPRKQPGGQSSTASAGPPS

[4] = target: T2, HA-PPDPF (human) (UniProt Q9H3Y8); assay: co-IP; 293T cells co-transfected with Flag-DDB1 and HA-PPDPF; immunoprecipitation of Flag-DDB1 or of HA-PPDPF
T2 sequence: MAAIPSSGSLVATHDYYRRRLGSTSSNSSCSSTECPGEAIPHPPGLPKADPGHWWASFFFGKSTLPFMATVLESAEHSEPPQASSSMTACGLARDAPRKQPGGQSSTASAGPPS

[5] = target: T2, HA-PPDPF (human); assay: co-IP; 293T cells co-transfected with Flag-Raptor and HA-PPDPF; each in turn precipitated
[6] = target: T3, GST-PPDPF mut (human) (UniProt Q9H3Y8); assay: pull-down; purified GST fusion protein incubated with lysate of cultured cells overnight at 4 °C, then GST beads 1 h at 4 °C, western blotting; only the target purified
T3 sequence: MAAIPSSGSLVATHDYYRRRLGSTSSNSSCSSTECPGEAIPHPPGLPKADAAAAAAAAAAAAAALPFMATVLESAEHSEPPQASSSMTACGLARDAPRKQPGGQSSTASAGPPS

[7] = target: T4, GST-fused segment 51-64aa of PPDPF (human) (UniProt Q9H3Y8); assay: as above
T4 sequence: PGHWWASFFFGKST

[8] = target: endogenous Raptor (mouse primary hepatocytes and liver) (mouse (endogenous in primary hepatocytes and liver)) (UniProt Q8K4Q0); assay: co-IP; endogenous PPDPF and Raptor in primary hepatocytes
[9] = target: Flag-Raptor (human) (UniProt Q8N122); assay: co-IP; 293T cells co-transfected with Flag-Raptor and HA-PPDPF; each in turn precipitated
[10] = target: Flag-DDB1 (human) (UniProt Q16531); assay: co-IP; 293T cells co-transfected with Flag-DDB1 and HA-PPDPF; immunoprecipitation of Flag-DDB1 or of HA-PPDPF
[11] = target: HA-Raptor (human) (UniProt Q8N122); assay: co-IP; 293T cells transfected with control vector, PPDPF WT or PPDPF mut and HA-Raptor plasmid; after 48 h

binding [1]: binds
binding [2]: binds
Molecule: DDB1 (293T and HepG2 cells) (from UniProt Q16531 1-1140)

binding [3]: binds
Molecule: DDB1 (in the lysate used for GST pull-down) (from UniProt Q16531 1-1140)

binding [3]: binds
binding [6]: no binding
binding [7]: binds
Molecule: Raptor (in the lysate used for GST pull-down) (from UniProt Q8N122 1-1335)

Further lines, the molecule ahead of its results:

Molecule: Flag-DDB1 (from UniProt Q16531 1-1140)
binding [4]: binds

Molecule: Flag-Raptor (from UniProt Q8N122 1-1335)
binding [5]: binds

B1: endogenous PPDPF (mouse primary hepatocytes) (protein, UniProt Q9CR37 1-115)
chain: MAAIPSSGSLVATHDYYRRRLGSSSSSSSGGSAEYPGDAVLQSPGLPKADPGHWWASFFFGKSTLPFMTTVLESPERSAESPQVSRSPMTCGLTPETMKQQPVIHSGQTNPRDLS
binding [8]: binds

B2: HA-PPDPF (protein, UniProt Q9H3Y8 1-114)
chain: MAAIPSSGSLVATHDYYRRRLGSTSSNSSCSSTECPGEAIPHPPGLPKADPGHWWASFFFGKSTLPFMATVLESAEHSEPPQASSSMTACGLARDAPRKQPGGQSSTASAGPPS
binding [9]: binds
binding [10]: binds

B3: PPDPF mut (overexpressed in 293T cells, tag not stated) (protein, UniProt Q9H3Y8 1-114)
chain: MAAIPSSGSLVATHDYYRRRLGSTSSNSSCSSTECPGEAIPHPPGLPKADAAAAAAAAAAAAAALPFMATVLESAEHSEPPQASSSMTACGLARDAPRKQPGGQSSTASAGPPS
binding [11]: no binding
